Test results: the supplement of paper PMC12645437, “Orthogonal IMiD-Degron Pairs Induce Selective Protein Degradation in Cells” (ACS Chemical Biology, 2025)
The list shows a part of the results.

Biological target: no compound (DMSO)
Experiment: log2 fold change of degron read counts, EGFP-low vs EGFP+ sorted cells; higher = lower degron-EGFP level without compound (poor expression or instability)
Details: compound: DMSO control; 18 h
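Further: jurkat cells carrying a lentiviral library of mutant zinc finger degrons fused to EGFP plus mCherry, mCherry+ cells FACS sorted, degron abundance counted by next-generation sequencing.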

Row | Sequence | log2 fold change of degron read counts
1 | FHCEICGRQFTQKGNLLRHIKL | -1.64
2 | FVCNICGAVFTQKGNLLRHIKL | -0.198
3 | FECEICGHNFTQKGNLLRHIKL | -1.18
4 | FGCPQCGANFTQKGNLLRHIKL | -0.704
5 | FWCNVCGAQFTQKGNLLRHIKL | 0.352
6 | FFCEQCGAEFTQKGNLLRHIKL | -2.51
7 | FWCNQCGRHFTQKGNLLRHIKL | 1.33
8 | FMCPICGHTFTQKGNLLRHIKL | -0.583
9 | LNCEICGFACTQKGNLLRHIKL | 0.316
10 | LFCEICGFSCTQKGNLLRHIKL | 0.459
11 | FCCNICGATFTQKGNLLRHIKL | -0.624
12 | FICDQCGAHFTQKGNLLRHIKL | -1.05
13 | FFCEICGRQFTQKGNLLRHIKL | -1.23
14 | FHCSVCGHSFTQKGNLLRHIKL | -0.0108
15 | FFCEVCGAVFTQKGNLLRHIKL | -0.507
16 | FVCPQCGAVFTQKGNLLRHIKL | -0.564

Row | Sequence | log2 fold change of degron read counts
17 | FKCEQCGAWFTQKGNLLRHIKL | -0.471
18 | FVCNQCGREFTQKGNLLRHIKL | -1.57
19 | FGCNQCGACFTQKGNLLRHIKL | -0.7
20 | FNCPVCGASFTQKGNLLRHIKL | -0.516
21 | FHCEICGAAFTQKGNLLRHIKL | -2.24
22 | LWCPICGFTCTQKGNLLRHIKL | 1.97
23 | FTCPVCGAYFTQKGNLLRHIKL | -0.0582
24 | LSCEICGFLCTQKGNLLRHIKL | 0.756
25 | FQCDICGADFTQKGNLLRHIKL | -1.3
26 | FHCNVCGATFTQKGNLLRHIKL | -0.749
27 | FCCEICGAMFTQKGNLLRHIKL | -0.665
28 | FYCPICGRPFTQKGNLLRHIKL | -0.109
29 | FDCEICGAAFTQKGNLLRHIKL | -1.04
30 | FWCNQCGHRFTQKGNLLRHIKL | 1.32
31 | FKCNQCGAEFTQKGNLLRHIKL | -1.64
32 | FNCEICGRAFTQKGNLLRHIKL | -1.64
